Measurements: PubChem BioAssay AID588795 (National Center for Advancing Translational Sciences (NCATS), 2011)
Among all 390,000 compounds or so, about 1,400 (0.36%) were called active. Inconclusive results, whose numbers are uncertain, are shown with a selection of clear calls. Calls follow the shape of the dose curve; as a rule, active = well fitted inhibition curve with a large enough effect; inconclusive = small, poorly fitted or top-dose-only effect; inactive = no such curve, though single readings can be large or run the other way. Where the call is inconclusive, the potency comes from a doubtful curve fit.

The molecules below were run against Flap endonuclease 1 (Homo sapiens) (UniProt P39748) (assay: qHTS Assay for the Inhibitors of Human Flap endonuclease 1 (FEN1).). Conditions: Recombinant FEN1 flap cleavage, fluorescence, 15 min; series mostly up to 114 µM.
In short: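 Concentration–response screening of FEN1 (10 nM): 15 min compound preincubation at room temperature, reaction started with 50 nM substrate and read at 0 and 15 min. Corrected, normalized data were fitted by a four-parameter Hill equation.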
Also: nearly all actives have a fitted effect of over 65% in size.
Potency is read from the fitted curve at half-maximal effect; tags tell the direction and shape of the fitted curve.

UniProt P39748, sequence (P39748 whole entry, looked up): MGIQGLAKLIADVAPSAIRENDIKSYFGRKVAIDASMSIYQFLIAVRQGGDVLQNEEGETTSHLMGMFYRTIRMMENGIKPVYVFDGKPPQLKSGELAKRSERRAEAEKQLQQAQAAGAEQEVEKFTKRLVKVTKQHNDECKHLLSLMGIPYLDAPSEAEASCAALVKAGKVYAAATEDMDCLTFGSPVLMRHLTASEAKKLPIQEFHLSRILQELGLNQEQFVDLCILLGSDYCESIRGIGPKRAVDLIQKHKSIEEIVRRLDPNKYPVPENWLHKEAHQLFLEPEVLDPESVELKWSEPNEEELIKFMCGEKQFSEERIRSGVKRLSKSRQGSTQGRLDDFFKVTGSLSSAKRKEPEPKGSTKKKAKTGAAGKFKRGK

With COc1ccc(Cn2c(O)c(C=Nc3ccccc3C(=O)O)c3ccccc3c2=O)cc1 as the molecule, how does the Potency read?
Its Potency is inconclusive: 50.1 µM [inhibitor, partial curve, poor fit].

How did the Potency turn out when Oc1ccc2ccccc2c1N=Nc1ccccn1 was run?
The Potency was inconclusive: 44.7 µM [inhibitor, partial curve].

For NN1C(=O)/C(=C2/Sc3ccccc3N2CCCS(=O)(=O)O)SC1=S, which Potency is on record?
The Potency was active: 35.5 µM.

CCOc1ccc(-c2nc(N)ncc2-c2ccccc2)c(O)c1 was tested. Which Potency did it give?
The Potency was inconclusive: 79.4 µM [inhibitor, partial curve, poor fit].

Which Potency does the source give for COc1cccc(C(=O)CC(=O)C(=O)Nc2ccc(C)cc2Cl)c1 here?
The Potency was inconclusive: 44.7 µM [inhibitor, partial curve].

With CCOC(=O)c1cnn(-c2nc(OC)cc(OC)n2)c1C(F)(F)F as the molecule, how does the Potency read?
The Potency was “inactive”.

How did the Potency turn out when COc1ccc(-c2nnn(CC(=O)N(CCCN3CCOCC3)C(C(=O)NC3CCCC3)c3ccco3)n2)cc1 (centres undefined) was run?
Its Potency is inconclusive: 39.8 µM [inhibitor, single point].

How did the Potency turn out when COC(=O)C(C)N1C(=O)S/C(=C\c2ccc(-c3ccc(C(=O)O)cc3C)o2)C1=O (centres undefined) was run?
Its Potency is inconclusive: 20 µM [inhibitor, full curve, poor fit].

With Cc1cc(C(=O)COC(=O)c2ccc([N+](=O)[O-])o2)c(C)n1CC1CCCO1 (centres undefined) as the molecule, how does the Potency read?
Its Potency is inconclusive: 89.1 µM [inhibitor, single point].

For CC(C)CC(=O)Nc1nnc(S(=O)(=O)N(C)Cc2ccc(Cl)cc2)s1, which Potency is on record?
The Potency was “inactive”.

For COc1ccc([C@@H]2[C@@H]3C(=O)N(C(C)(C)C)C(=O)[C@@H]3[C@]3(C)C(=O)N(c4cccc(Br)c4)C(=O)N23)cc1, which Potency is on record?
Its Potency is inconclusive: 79.4 µM [inhibitor, partial curve, poor fit].

For COc1ccc(Cl)cc1NC(=O)N(C)CCc1c(C)nn(C)c1C, which Potency is on record?
The Potency was “inactive”.

For CCN(CC)CCn1c(NC(=O)c2ccccc2O)nc2ccccc21, which Potency is on record?
Its Potency is inconclusive: 44.7 µM [inhibitor, partial curve, poor fit].

For COc1ccccc1CNc1nc(-c2cc(C)n(C)c2C)cs1, which Potency is on record?
Its Potency is “inactive”.

How did the Potency turn out when COC(=O)C[C@H]1c2cc(F)ccc2S(=O)(=O)N1Cc1ccccc1OC was run?
The Potency was inconclusive: 100 µM [inhibitor, partial curve, poor fit].

Which Potency does the source give for CC[n+]1c2ccccc2cc2ccccc21 here?
Its Potency is inconclusive: 44.7 µM [inhibitor, partial curve, poor fit].

With CC(=O)C1CCC2C3CC=C4CC(SC(=N)N)CCC4(C)C3CCC12C (centres undefined) as the molecule, how does the Potency read?
Its Potency is inconclusive: 44.7 µM [inhibitor, partial curve].

How did the Potency turn out when Fc1cccc(-c2nnn3c2nc(NC2CCCCC2)c2ccccc23)c1 was run?
The Potency was “inactive”.

Which Potency does the source give for C#CCOCCOCCOCCNc1nc(N2CCN(C(=O)CCCCCCCCCCNC(=O)[C@@H](CCC(=O)O)n3cc(CCCCCN)nn3)CC2)nc(N2CCN(C(=O)CCCCCCCCCCNC(=O)[C@H](CCCCN)n3cc(C[C@@H](C)CC)nn3)CC2)n1 here?
The Potency was inconclusive: 89.1 µM [inhibitor, single point].

C#CCOCCOCCOCCNc1nc(N2CCN(C(=O)CCCCCCCCCCNC(=O)[C@@H](CCSC)n3cc(CCO)nn3)CC2)nc(N2CCN(C(=O)CCCCCCCCCCNC(=O)[C@H](CO)n3cc(CCCCCN)nn3)CC2)n1 was tested. Which Potency did it give?
Its Potency is inconclusive: 89.1 µM [inhibitor, single point].

With CCOc1ccc(NC(=O)c2c(NC(=O)Cc3ccccc3)sc3c2CCCCC3)cc1 as the molecule, how does the Potency read?
Its Potency is inconclusive: 89.1 µM [inhibitor, partial curve, poor fit].

For CCc1ccccc1NC(=O)Nc1nnc(N(CC)c2ccccc2)s1, which Potency is on record?
Its Potency is “inactive”.

With CC(C)(C)c1ccc(C(=O)Nc2sc3c(c2C#N)CCC(C(C)(C)C)C3)cc1 (centres undefined) as the molecule, how does the Potency read?
The Potency was “inactive”.

CCN(CC)S(=O)(=O)c1ccc2nc(NC(=O)c3cncc(Br)c3)sc2c1 was tested. Which Potency did it give?
Its Potency is “inactive”.

With Cc1ccc2nc3[nH]c(=O)[nH]c(=O)c3c(N)c2c1 as the molecule, how does the Potency read?
The Potency was inconclusive: 50.1 µM [inhibitor, partial curve].

With C[C@@H](O)C1NC(=O)[C@H](CCCCN)NC(=O)c2cc([N+](=O)[O-])cc(I)c2OCC[C@@H](C(N)=O)NC1=O (some centres undefined) as the molecule, how does the Potency read?
The Potency was inconclusive: 100 µM [inhibitor, partial curve, poor fit].

O=C(COc1ccc(-c2nnco2)cc1)Nc1cc([N+](=O)[O-])ccc1F was tested. Which Potency did it give?
Its Potency is inconclusive: 89.1 µM [inhibitor, single point].

How did the Potency turn out when COC(=O)c1cc(C(=O)Nc2nnc(CC(C)(C)C)s2)cc([N+](=O)[O-])c1 was run?
Its Potency is “inactive”.

For CC(C)C[C@H](CO)N(Cc1ccccc1)S(=O)(=O)N(Cc1ccccc1)[C@@H](CO)CC(C)C, which Potency is on record?
The Potency was inconclusive: 35.5 µM [inhibitor, partial curve, poor fit].

O=C(Nc1ccc(F)cc1)Nc1cc(OCC(F)(F)F)cc(OCC(F)(F)F)c1 was tested. Which Potency did it give?
The Potency was inconclusive: 79.4 µM [inhibitor, partial curve, poor fit].

With CCN1/C(=C2/SC(=S)N(NC(C)=O)C2=O)Sc2ccc(Cl)cc21 as the molecule, how does the Potency read?
The Potency was inconclusive: 20 µM [inhibitor, full curve, poor fit].

With COc1ccc(N2CCN(Cc3nnc(-c4cccc(Br)c4)o3)CC2)cc1 as the molecule, how does the Potency read?
Its Potency is inconclusive: 89.1 µM [inhibitor, single point].

CC(C)c1ccc(NC(=O)CSc2nc3ccsc3c(=O)n2Cc2ccc(C(=O)O)cc2)cc1 was tested. Which Potency did it give?
The Potency was inconclusive: 25.1 µM [inhibitor, partial curve, poor fit].

For CN(C)CCNc1oc(-c2ccc(COc3ccc(Cl)cc3)o2)nc1C#N, which Potency is on record?
The Potency was “inactive”.

How did the Potency turn out when COc1ccc2oc(-c3ccncc3)cc(=O)c2c1 was run?
Its Potency is inconclusive: 79.4 µM [inhibitor, partial curve, poor fit].

CC1CCc2sc3nc(NCc4ccco4)n4ncnc4c3c2C1 (centres undefined) was tested. Which Potency did it give?
The Potency was inconclusive: 89.1 µM [inhibitor, partial curve, poor fit].

With COC(=O)C(C)Oc1ccc2c(c1)O/C(=C\c1ccco1)C2=O (centres undefined) as the molecule, how does the Potency read?
Its Potency is “inactive”.

How did the Potency turn out when C[n+]1ccc(/C=C/c2cc[n+](C)c3ccccc23)c2ccccc21 was run?
The Potency was active: 10 µM.

For Oc1c(Br)cc(/C=N/n2c(-c3ccccc3)n[nH]c2=S)c(O)c1Br, which Potency is on record?
Its Potency is inconclusive: 22.4 µM [inhibitor, full curve, poor fit].

For N#C/C(=C\c1ccc(OCc2ccc(Cl)cc2)cc1)C(=O)Nc1cccc(C(=O)O)c1, which Potency is on record?
The Potency was inconclusive: 89.1 µM [inhibitor, single point].

How did the Potency turn out when Cc1ccc(NC(=O)CCS(=O)(=O)c2ccc(Br)s2)c(Br)c1 was run?
The Potency was “inactive”.

For C=CCOC(=O)C1=C(C)NC(C)=C(C(=O)OCC=C)C1c1ccc(C)o1, which Potency is on record?
Its Potency is inconclusive: 70.8 µM [inhibitor, partial curve, poor fit].

Which Potency does the source give for O=c1[nH]c(=O)c2[nH]c(=S)[nH]c2[nH]1 here?
The Potency was inconclusive: 89.1 µM [inhibitor, single point].

Cc1ccc2cc(/C=N/NC(=O)c3ccccc3O)c(Cl)nc2c1 was tested. Which Potency did it give?
The Potency was “inactive”.

CCc1cccc(C)c1NC(=O)Cn1nc(C)n2cccc2c1=O was tested. Which Potency did it give?
Its Potency is inconclusive: 50.1 µM [inhibitor, partial curve].

How did the Potency turn out when COc1ccc(NC(=O)CNC(=O)N2CC(=O)Nc3ccccc32)cc1OC was run?
The Potency was inconclusive: 44.7 µM [inhibitor, partial curve, poor fit].

Which Potency does the source give for O=C(O)C(O)c1ccco1 (centres undefined) here?
Its Potency is inconclusive: 70.8 µM [inhibitor, single point].

Which Potency does the source give for CC(=O)C1=C(O)C(=O)N(Cc2ccco2)C1c1ccccc1 (centres undefined) here?
Its Potency is inconclusive: 50.1 µM [inhibitor, partial curve].

With CCOC(=O)C1CCN(Cc2ccc(O)c3ncccc23)CC1 as the molecule, how does the Potency read?
The Potency was inconclusive: 63.1 µM [inhibitor, single point].

CCN=c1scc(C)n1/N=C/c1ccc(O)c(O)c1O was tested. Which Potency did it give?
Its Potency is inconclusive: 56.2 µM [inhibitor, partial curve, poor fit].

With CCC(C(=O)N1CCN(c2cccc(Cl)c2)CC1)c1ccccc1 (centres undefined) as the molecule, how does the Potency read?
The Potency was “inactive”.

Which Potency does the source give for Cc1ccccc1Nc1nnc(SCC(=O)NC(=O)NCc2ccco2)s1 here?
The Potency was inconclusive: 79.4 µM [inhibitor, partial curve, poor fit].

How did the Potency turn out when CN(CCNC(=O)c1cc2c(=O)n(C)c3ccccc3c2n1C)Cc1ccccc1 was run?
The Potency was inconclusive: 56.2 µM [inhibitor, partial curve, poor fit].

Which Potency does the source give for Cc1ccc2c(c1)C(c1ccc(F)cc1)N(C(=O)c1ccc(S(=O)(=O)N3CCCCC3)cc1)CC(=O)N2 (centres undefined) here?
Its Potency is “inactive”.

O=C(/C=C1\NC2(CCCC2)Cc2ccccc21)C(=O)N/N=C/c1ccc(O)c(O)c1 was tested. Which Potency did it give?
Its Potency is “inactive”.

CCN1CCN(Cc2c(O)ccc3c2O/C(=C\C=C\c2ccccc2OC)C3=O)CC1 was tested. Which Potency did it give?
Its Potency is inconclusive: 70.8 µM [inhibitor, partial curve, poor fit].

How did the Potency turn out when Cc1nc2ncnn2c(N2CCN(C(=O)Cc3cccs3)CC2)c1C was run?
Its Potency is “inactive”.

For COc1ccc(C(=O)NCCN(C)C)c2nc3ccccc3cc12, which Potency is on record?
The Potency was active: 14.1 µM.

COc1ccc(C2=C(C)C(N3CCC(C(=O)Nc4ccccc4F)CC3)=NS2(=O)=O)cc1 was tested. Which Potency did it give?
The Potency was “inactive”.

How did the Potency turn out when CCc1ccc(-n2c(=O)c3c4c(sc3n(Cc3cc(=O)n5c(C)cccc5n3)c2=O)CCC4)cc1 was run?
Its Potency is “inactive”.

Which Potency does the source give for COc1ccc(-c2nc3c(C(=O)NCCN(C)C)cccc3c3ccccc23)cc1 here?
Its Potency is active: 31.6 µM.

For O=C(COC(=O)C1CC2C=CC1C2)NCc1ccco1 (centres undefined), which Potency is on record?
The Potency was “inactive”.

C=CC(=O)Nc1ccc(N(C)c2ccnc(Nc3ccc(N4CCN(C)CC4)cc3)n2)cc1 was tested. Which Potency did it give?
Its Potency is inconclusive: 44.7 µM [inhibitor, partial curve, poor fit].

Which Potency does the source give for CCCCNC(=O)C1CCC(Cn2c(=O)c3sccc3n(Cc3ccccc3)c2=O)CC1 (centres undefined) here?
The Potency was “inactive”.
